Source: patent US20180015075A1, “METHODS AND COMPOSITIONS FOR TREATMENT OF VENOUS MALFORMATION” (Children's Hospital Medical Center, priority 2016, published 2018)

System: HUVEC (non-transfected)
Assay: cells
Settings: Homo sapiens, read-out: Average proliferation Inhibition rate (%) HUVEC

## Oc1ncc(N(CCCl)CCCl)c(O)n1 [Uracil mustard]
  inhibition at 20 µM: 18.8%
